# Hit rate of the full screen: of about 350,000 compounds, about 990 (0.28%) were called active. The shares of active, inactive and inconclusive entries below differ from those in the screen. Calls come from the whole dose curve; as a rule, active = well fitted inhibition curve with a large enough effect; inconclusive = small, poorly fitted or top-dose-only effect; inactive = no such curve, though single readings can be large or run the other way. Potencies of inconclusive entries are doubtful fits and often do not repeat.
# Molecular target: Tyrosyl-DNA phosphodiesterase 1 (Homo sapiens) (UniProt Q9NUW8)
# Sequence of UniProt Q9NUW8 (Q9NUW8 whole entry, looked up): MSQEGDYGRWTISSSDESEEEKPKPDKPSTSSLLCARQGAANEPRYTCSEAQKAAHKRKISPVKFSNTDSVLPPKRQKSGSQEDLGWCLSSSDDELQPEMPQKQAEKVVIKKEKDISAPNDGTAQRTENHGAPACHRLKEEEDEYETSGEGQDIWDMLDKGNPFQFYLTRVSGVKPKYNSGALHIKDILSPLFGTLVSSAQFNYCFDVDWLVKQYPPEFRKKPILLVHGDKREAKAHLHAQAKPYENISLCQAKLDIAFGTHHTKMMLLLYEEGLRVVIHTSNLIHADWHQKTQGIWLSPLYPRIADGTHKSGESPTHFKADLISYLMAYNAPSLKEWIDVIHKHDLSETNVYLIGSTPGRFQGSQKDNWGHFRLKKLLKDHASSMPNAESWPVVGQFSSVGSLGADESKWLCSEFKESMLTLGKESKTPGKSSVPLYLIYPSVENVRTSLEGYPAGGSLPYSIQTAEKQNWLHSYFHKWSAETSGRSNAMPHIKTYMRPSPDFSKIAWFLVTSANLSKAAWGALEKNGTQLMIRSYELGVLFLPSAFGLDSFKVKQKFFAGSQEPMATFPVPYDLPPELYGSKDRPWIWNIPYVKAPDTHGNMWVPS
# Assay: qHTS Assay for Inhibitors of Tyrosyl-DNA Phosphodiesterase (TDP1); note: nearly all actives have a fitted effect of over 40% in size
# Details: recombinant TDP1, AlphaScreen DNA substrate cleavage; activity change, negative = inhibition: at 130 µM (top of the series) unless noted
# Procedure, shortened: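 Signal: AlphaScreen proximity between streptavidin donor and anti-FITC acceptor beads on intact substrate. Reaction: Tdp1 1 nM, substrate 15 nM final, 5 min RT after 15 min compound preincubation.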
# % is set by controls: 0 for no effect and ±100 for the full control effect; potency is the fitted concentration of half-maximal effect; tags give direction and shape of the fitted curve.
Compound,Potency,"activity change, negative = inhibition"
O=C(NC1CC(=O)N(c2cccc(F)c2)C1)c1ccc(Br)o1 (centres undefined),inactive,
Cc1ccc(C(=O)O)cc1-c1ccc(/C=C2/NC(=O)N(c3ccccc3)C2=O)o1,active: 1.58 µM,
Cn1c(C=O)c(C#Cc2ccccc2)c2ccccc21,active: 20 µM,
CCOC(=O)c1cc(-c2cc3ccccc3o2)nc2c1c(=O)[nH]c(=O)n2CCOC,inactive,
COc1ccc(OC)c(NC(=O)COC(=O)c2cc3c(s2)CCC3)c1,active: 2.82 µM,
CCOc1ccc(-c2c(C(=O)N/N=C/c3ccncc3)nnn2-c2nonc2N)cc1,"inconclusive: 56.2 µM [inhibitor, partial curve]",
O=C(Nc1ccccc1F)c1ccc(CSc2ccccc2)o1,"inconclusive: 22.4 µM [inhibitor, partial curve, poor fit]",
CCOCCCNCC(=O)NC1(C)C2CCC(C2)C1(C)C (centres undefined),"inconclusive: 2 µM [inhibitor, full curve, poor fit]",
CCOC(=O)c1ccccc1NC(=O)COC(=O)CCC1CCCC1,active: 50.1 µM,
CCOC(=O)CC(NC(=O)N1CCC(CN2CCC(C)CC2)CC1)c1ccccc1 (centres undefined),inactive,
CC(=O)Nc1ccc(S(=O)(=O)/N=C2/NC(=O)/C(=C\c3ccco3)S2)cc1,"inconclusive: 28.2 µM [inhibitor, full curve]",
Cc1cc(OCc2ccc(F)cc2)nc(-c2ccccc2O)n1,"inconclusive: 14.1 µM [inhibitor, full curve, poor fit]",
COc1ccccc1NC(=O)C1=C(C)Nc2nc(SCc3ccccc3C)nn2C1CC(C)C (centres undefined),inactive,
Cc1cccc(C)c1NC(=O)CN1CCN(C(=O)c2ccc(OCc3cn4ccccc4n3)cc2)CC1,active: 44.7 µM,
Cc1cc(C)n(C(C)CNC(=O)c2ccc3c(c2)OCO3)n1 (centres undefined),"inconclusive: 39.8 µM [inhibitor, single point]",
O=C(O)c1cccc(-n2c(-c3cnccn3)n[nH]c2=S)c1,"inconclusive: 39.8 µM [inhibitor, single point]",
Cc1cnc(CNc2ncncc2-c2ccccc2C(F)(F)F)cn1,active: 39.8 µM,
NC(=O)c1cc[n+](CC2=C(C(=O)O)N3C(=O)[C@@H](NC(=O)[C@@H](c4ccccc4)S(=O)(=O)[O-])[C@H]3SC2)cc1,active: 11.2 µM,
O=C(Nc1nnc(CC2=CCCCC2)s1)Nc1ccccc1F,inactive,
CC(C)(C)OC(=O)C(Cc1ccc(OC(C)(C)C)cc1)NC(=O)CNC(=O)CNC(=O)OCc1ccccc1 (centres undefined),inactive,
FC(F)(F)c1cc(-c2ccccc2)nc(NCc2cccs2)n1,"inconclusive: 31.6 µM [inhibitor, full curve]",
CC1(C)CC(=O)c2c(oc3cc(O)c(O)cc23)C1,"inconclusive: 1.26 µM [inhibitor, full curve, poor fit]",
O=C(CCCc1ccccc1)c1ccccc1,active: 35.5 µM,
O=C(N/N=C/c1c[nH]c2ccc(Br)cc12)c1ccncc1,active: 89.1 µM,
O=C(NCCNC(=O)c1ccccc1Cl)c1ccco1,,inconclusive: -21.7% [inhibitor]

Compound,Potency,"activity change, negative = inhibition"
Brc1ccc(C2=Nn3c(nnc3-c3n[nH]c4c3CCC4)SC2)cc1,inactive,
CCCSc1nnc(NC(=O)CSc2nc3[nH]c(=O)cc(O)c3s2)s1,"inconclusive: 56.2 µM [inhibitor, partial curve]",
C=C1c2cccc(OC)c2O[C@H](C(=O)OCC)[C@@H]1CC(CC)CCCC (some centres undefined),"inconclusive: 44.7 µM [inhibitor, single point]",
COc1ccc(COc2ncnc3ccc(Br)cc23)cc1F,inactive,
CSc1nnc(SCc2nc3sc(C(=O)O)c(C)c3c(=O)[nH]2)s1,active: 22.4 µM,
Cc1cccc(NC(=O)CCSc2ccccc2)c1C,"inconclusive: 100 µM [inhibitor, single point]",
COc1ccc(S(=O)(=O)N2CCC(C(=O)NCc3cccnc3)CC2)cc1OC,active: 4.47 µM,
c1cc2c(cnc3cscc32)s1,"inconclusive: 31.6 µM [inhibitor, single point]",
O=S(=O)(Nc1cccc(S(=O)(=O)N2CCOCC2)c1)c1ccc(Cl)s1,"inconclusive: 89.1 µM [inhibitor, single point]",
COc1ccc(CNC(=O)CS(=O)CC(=O)O)cc1OC (centres undefined),"inconclusive: 56.2 µM [inhibitor, partial curve, poor fit]",
Cc1ccccc1Nc1nnc(SCC(=O)NCc2ccco2)s1,"inconclusive: 63.1 µM [inhibitor, partial curve]",
C[C@@H]1CN(Cc2nc(-c3cnccn3)no2)C[C@H](C)O1,"inconclusive: 100 µM [inhibitor, single point]",
CCC(C)NCCCOc1ccc(C)cc1OC (centres undefined),"inconclusive: 10 µM [inhibitor, partial curve]",
Cc1c(NC(=O)C(C)SC(=S)N2CCCC2)c(=O)n(-c2ccccc2)n1C (centres undefined),inactive,
CC(=O)N1CCN(S(=O)(=O)c2cccc(C(=O)OCc3ccc(C(C)(C)C)cc3)c2)CC1,"inconclusive: 35.5 µM [inhibitor, partial curve]",
Cc1ccc(-n2ncc(C(=O)NCc3ccccc3)c2C2CCN(C(=O)OC(C)(C)C)CC2)cc1,"inconclusive: 3.55 µM [inhibitor, single point]",
O=C1CSC(=S)N1/N=C/c1ccc(O)c(O)c1O,"inconclusive: 0.224 µM [inhibitor, full curve, poor fit]",
O=C(O)c1cccc(-n2cccc2/C=C2\NC(=O)N(Cc3ccc(F)cc3)C2=O)c1,"inconclusive: 8.91 µM [inhibitor, full curve]",
C/C(=N\NC(=O)CNC(=O)c1ccccc1Br)c1ccco1,"inconclusive: 89.1 µM [inhibitor, single point]",
Cn1c(C=O)c(-c2ccc3c(c2)OCCO3)c2ccccc21,"inconclusive: 15.8 µM [inhibitor, full curve, poor fit]",
C=CCn1c(SCC(=O)NC(=O)NCc2ccco2)nc2sc(CC)cc2c1=O,"inconclusive: 50.1 µM [inhibitor, partial curve]",
O=C(O)CCc1ccc(-c2cccs2)o1,active: 15.8 µM,
CCn1c(SCc2nc3sc(C(=O)O)c(C)c3c(=O)[nH]2)nc2ccccc21,active: 8.91 µM,
COc1cc(/C=C/C(=O)c2ccc([N+](=O)[O-])o2)ccc1O,"inconclusive: 50.1 µM [inhibitor, partial curve]",
CN(C)CCn1nnnc1SCC1=C(C(=O)O)N2C(=O)[C@@H](NC(=O)Cc3csc(N)n3)[C@@H]2SC1,"inconclusive: 5.01 µM [inhibitor, partial curve]",

Compound,Potency,"activity change, negative = inhibition"
Cn1c2ccccc2c(=O)c2cc(C#Cc3cccc(N)c3)ccc21,inactive,
O=C(N/N=C/c1cc(Br)c(Br)o1)c1cc2ccccc2o1,active: 50.1 µM,
Cc1ccccc1OCc1nnc(SCC(=O)Nc2ccc3c(c2)oc2ccccc23)n1C,inactive,
COC(=O)c1sc(=S)n(Cc2ccccc2)c1C,"inconclusive: 100 µM [inhibitor, partial curve, poor fit]",
O=C(Nc1cc2c(oc1=O)CCCC2=O)c1ccc(Cl)cc1,active: 12.6 µM,
CS(=O)(=O)N(CC(=O)Nc1cccc([N+](=O)[O-])c1)c1cccc(F)c1,"inconclusive: 89.1 µM [inhibitor, single point]",
Cc1ccc2occ(C3N[C@H](C(=O)O)CS3)c(=O)c2c1 (some centres undefined),inactive,
CCN(CC)C(=O)c1cccnc1,inactive,
CCC(C)NCCCOc1ccc(Cl)cc1C(C)(C)C (centres undefined),"inconclusive: 15.8 µM [inhibitor, partial curve]",
CCC(C(=O)OCC(=O)c1ccc(OC)cc1OC)c1ccccc1 (centres undefined),"inconclusive: 35.5 µM [inhibitor, partial curve]",
Nc1cc(C(=O)O)ccc1N1CCCCC1,"inconclusive: 79.4 µM [inhibitor, single point]",
COc1ccccc1-c1cncnc1NCCN1CCOCC1,"inconclusive: 28.2 µM [inhibitor, single point]",
Cc1ccc(C2C(C#N)=C(N)SC(N)=C2C#N)o1,"inconclusive: 14.1 µM [inhibitor, full curve]",
COc1cccc(/C=C(\C#N)c2nc3ccc(C)cc3[nH]2)c1,"inconclusive: 28.2 µM [inhibitor, single point]",
O=C(O)c1cc(N/N=C/c2ccc(N3CCOCC3)s2)ccc1Cl,"inconclusive: 3.16 µM [inhibitor, full curve]",
C=CCCCCCCCCCCCc1ccco1,"inconclusive: 0.01 µM [inhibitor, full curve, poor fit]",
CC(=O)c1ccc(NC(=O)N2CCCC(C(=O)c3ccc4c(c3)OCO4)C2)cc1 (centres undefined),"inconclusive: 44.7 µM [inhibitor, single point]",
O=C(OCc1ccccc1F)c1cnc(Cl)c(Cl)c1,active: 89.1 µM,
CC(=O)c1ccc(S(=O)(=O)Nc2cccc(-n3cnnn3)c2)cc1,"inconclusive: 14.1 µM [inhibitor, full curve]",
CCN1C(=O)C2(C(C#N)=C(N)Oc3n[nH]c(C(C)C)c32)c2ccccc21 (centres undefined),inactive,
CC(=O)N1CCN(C(=O)c2cccc(S(=O)(=O)N3CCOCC3)c2)CC1,inactive,
Cc1ccccc1CNC(=O)c1ccc(CS(=O)Cc2ccc(Cl)cc2)o1 (centres undefined),inactive,
CN[C@H](C)C(=O)NC[C@H]1O[C@@H](n2cnc3c(N)ncnc32)[C@H](O)[C@@H]1O,inactive,
CCSc1ccc(/C(N)=N/OC(=O)c2cccs2)cn1,"inconclusive: 56.2 µM [inhibitor, partial curve]",

# Source: PubChem BioAssay AID485290 (National Center for Advancing Translational Sciences (NCATS), 2010)
